Measurements published in US20110195896A1 (CASE WESTERN RESERVE UNIVERSITY, published 2011).

B1: His^A8, Asp^B10, Asp^B28, Pro^B29 insulin (two chain analogue) (ligand)
chain 1: FVNQHLCGSDLVEALYLVCGERGFFYTDPT
chain 2: not shown
notes: also called A8-His, B-10 Asp, B 28-Asp, B 29-Pro ins; two-chain control analog
B2: Lantus ® (ligand)
chain 1: not shown
chain 2: not shown

Legend:
Type I IGF receptor [1] = biological target: T1, Type I IGF receptor; experiment: competitive displacement of labelled tracer from IGFR
T1 construct: also called IGF-I RECEPTOR; Insulin-like Growth Factor Receptor

[2] = biological target: T2, human insulin receptor isoform A (human); experiment: competitive displacement of 125I-insulin from receptor
T2 construct: the A isoform lacks exon 11); also called IR-A; HIRA

Type I IGF receptor [3] = biological target: T1, Type I IGF receptor; experiment: competitive displacement of 125I-IGF-1 from IGFR

| relative affinity (Type I IGF receptor [1]) | Kd [2] [nM] | relative affinity [2] | Kd (Type I IGF receptor [3]) [nM] | relative affinity (Type I IGF receptor [3]) | Binder |
| --- | --- | --- | --- | --- | --- |
| 3.54 relative to human insulin | 0.008 | 4.25 relative to human insulin |  |  | B1 |
|  |  |  | 3.14 | 0.015 relative to IGF-1 | B2 |
